From the supplement of paper PMC10126150 come the findings set out here.

In this data set the test system is ATP. The data set is described as follows: switch fluorescence ratio, 500 uM ATP over buffer (Cy3 cluster intensity, sum of 5 cycles each) (fold (ratio)); higher = stronger signal-on switching upon ATP binding; sequences stand for … in TCGTCGGCAGCGTCAGATGTGTATAAGAGACAGTTTTTTTTTTTTTTTTTTTTTTTTT…TC. The following applies: aptamer strand: ATP DNA aptamer (quencher-CACCTGGGGGAGTATTGCGGAGGAAGG + anchor), 100 nM annealed; ATP concentration: 500 uM; one replicate. The method in brief: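 Between each of five buffer/ATP cycles, the flow-cell was stripped with NaOH and re-annealed. Each cycle imaged Cy3-labelled switching-strand clusters, annealed to 100 nM quencher-labelled ATP aptamer on a modified Illumina MiSeq flow-cell, first in selection buffer and then after 15 min with 500 uM ATP at 22 °C. The fluorescence ratio is summed target-cycle over summed buffer-cycle Cy3 intensity per cluster, averaged per switch-domain sequence, with clusters outside 100-1000 RFU excluded.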

Sequences with one replicate were seen in a single cluster, so their values are uncertain.
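Note: ATP exposure 15 min at 22 °C before imaging.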

Turning to TTACGACCTC, the switch fluorescence ratio worked out at 1.17.
The value for CTGGGCCAAA was 1.02; that for GGACTACGCC was 1.45; that for CCAGTCAAGG was 0.997.
For CGGTCGTGCC the value was 0.962; for TGACGAGATA, 1.06.
For ATGAACGCCG the value was 1.06; for ACGATAACCT, 1.87; for CGGTCAGCCC, 0.977.
On to ATTATCGACC, for which the switch fluorescence ratio is 1.04.
Turning to TTCAATGGTC, the switch fluorescence ratio worked out at 1.13.
Regarding ACCGAGTTAA, the switch fluorescence ratio came out at 0.994.
In the case of ATAGCGGTTC, the switch fluorescence ratio was found to be 1.1.
For AGGGTTGCAC the value was 1.
AGGAAGGTGC: the switch fluorescence ratio is 1.51.
Consider TTTCTAAGGC, for which the switch fluorescence ratio turned out to be 0.964.
For TTAGAGTAAT the value was 1.28; for AGGCACCAAA, 1.24; for GGAGTGCTTA, 0.995.
For CCTTAGCGCA the value was 2; for TATGTATGGC, 0.986.
On to GAGACGAGG, for which the switch fluorescence ratio turned out to be 0.981.
For ACAAAGTTGT the value was 0.959; for TGTGGGTGCG, 1.01.
As for CAGAACGTGC, the switch fluorescence ratio came out at 1.06.
Turning to GCGGGTACGG, the switch fluorescence ratio stood at 0.977.
Turning to GAAAGATATT, the switch fluorescence ratio was 1.01.
TAAATTTCTA: the switch fluorescence ratio turned out to be 1.01.
The value for ATATAAGGCG was 1.03; that for ATTAACCTTG was 1.02.
Consider AGACTGCCGG, for which the switch fluorescence ratio came out at 0.931.
On to CCGAAACCTT, for which the switch fluorescence ratio was 3.75.
The value for CGGGTGTCTC was 1.06.
As to GATGTTTCGG, the switch fluorescence ratio turned out to be 0.969.
Turning to GCGTAAAAT, the switch fluorescence ratio is 0.987.
Take GAAATCTCCG: the switch fluorescence ratio was determined as 1.17.
The value for CAGTGTAGAC was 1.06; that for GCACTGGATG was 1.09; that for GGCAGCACTT was 1.03.
For CGCGAGTCTC the value was 1.31.
Regarding GTGCCCCAAA, the switch fluorescence ratio is 1.07.
AATTGGTAAT: the switch fluorescence ratio stood at 0.967.
The value for TCATCCTTTG was 0.99.
Turning to GGCTCGCGAC, the switch fluorescence ratio is 1.1.
For TTAAAAGCG the value was 1.04; for CCCGTCGCAT, 2.74.
For GATCGAGTAG the value was 0.993.
As for GTGATGAGTG, the switch fluorescence ratio worked out at 0.984.
For TCCTCGCTCA the value was 1.14; for ACGGAATCAA, 1.11; for CAACCCACTA, 1.36.
The value for ATTAAAGTCC was 0.962.
With GCTTACTAGG, the switch fluorescence ratio is 1.06.
The value for CACGGTGTGG was 0.992; that for CTAATTCTTC was 0.993; that for CAGTTAAATA was 0.993.
Turning to ATTATTCAAG, the switch fluorescence ratio came to 1.02.
Turning to TGATTCTCCT, the switch fluorescence ratio was found to be 1.01.
For CCTCACGGGT, the switch fluorescence ratio was 1.27.
Turning to GTTTAAGTGT, the switch fluorescence ratio was determined as 0.961.
On to TACGCTGGAA, for which the switch fluorescence ratio was 0.987.
Take AAGCGCAGGA: the switch fluorescence ratio stood at 1.02.
The value for CAGGGCCAAG was 1.01.
For GTTGTTTTAT the value was 0.981.
Turning to TTTGAGGAGT, the switch fluorescence ratio is 0.999.
The value for AACCGTCTT was 1.01.
Consider CAGTATATCT, for which the switch fluorescence ratio is 1.02.
The value for GTTGAATGTT was 1.02; that for AATGTATCTA was 0.997.
As for GGAGAGGCGG, the switch fluorescence ratio came to 1.03.
In the case of GCTATGACGC, the switch fluorescence ratio was 1.06.
On to GCGGATGGGT, for which the switch fluorescence ratio stood at 0.976.
Regarding ATCGTTCATG, the switch fluorescence ratio stood at 1.01.
Take CCTTCATCAT: the switch fluorescence ratio is 1.33.
Take CAGAGTGACA: the switch fluorescence ratio was 1.
For GGGGGTTGCC the value was 1.02; for ATCAGACGAC, 1.08.
For TAACTACATT the value was 1.04; for GGGTGACGAC, 1.13; for GATGGGTTAA, 0.97.
As for CTCTTTGAGT, the switch fluorescence ratio came out at 0.997.
GGTTTGT: the switch fluorescence ratio worked out at 1.03.
For the sequence AGTGGTAAA, the switch fluorescence ratio worked out at 1.02.
As for CTTTAGGGAT, the switch fluorescence ratio is 1.
The value for CCGATCTAAC was 2.89.
ATTCAAACAT: the switch fluorescence ratio amounted to 1.04.
The value for GGGAGCCTGT was 1; that for TGACTACCTA was 1.12.
The value for GCCAGAAGAA was 0.973; that for AAGATCAGTG was 1.
For CCATTGGCGA the value was 1.15; for TGATGGCA, 1.06; for TAGGGGGTGC, 1.01.
For the sequence CGATTCGAAG, the switch fluorescence ratio came to 0.992.
For the sequence GTGTCAAATA, the switch fluorescence ratio was 0.939.
As to CGTAGTTTGA, the switch fluorescence ratio amounted to 1.
For ATTTAGTTAC, the switch fluorescence ratio is 1.
For GGGCTATGGC the value was 1.04; for GGCGGACGCG, 0.969; for CAAAGCTCTT, 1.
Turning to TGTCTGCT, the switch fluorescence ratio amounted to 0.979.
The value for GATCCTAGGA was 0.945; that for AATAATTGAT was 1.05; that for ACATCGAAGG was 1.
CAAAATGTTT: the switch fluorescence ratio is 1.
For GCGACTTGAC the value was 1.06; for TGAATATATA, 1.01.
The value for TCCTGGGAGA was 1; that for GAATGGCTCT was 0.983; that for ACGACGATAG was 0.949.
CACGGATCCG: the switch fluorescence ratio was found to be 1.02.
Consider CCGGGCACCA, for which the switch fluorescence ratio turned out to be 1.07.
For TACGAAGGTG the value was 1.23; for GCTCTGTAG, 1.05; for GGTATTCGA, 0.997.
Take ACCGGTTTGC: the switch fluorescence ratio worked out at 0.996.
The value for ACGGGTGGGC was 1.07; that for CCTCCTTCAT was 2.93; that for CATTCATTT was 0.992.
With GCTATAAGCT, the switch fluorescence ratio came to 1.06.
